{"source": "paper PMC4336329", "about": "(PLoS ONE, 2015)", "note": "Out of some 310,000 compounds screened, about 14,000 (4.5%) showed an effect of 50% or more. Effects have a minus sign here. This is one part of the list."}
{"target": "human ether-à-go-go-related gene (hERG) potassium channel (human, UniProt Q12809)", "sequence (Q12809 whole entry, looked up)": "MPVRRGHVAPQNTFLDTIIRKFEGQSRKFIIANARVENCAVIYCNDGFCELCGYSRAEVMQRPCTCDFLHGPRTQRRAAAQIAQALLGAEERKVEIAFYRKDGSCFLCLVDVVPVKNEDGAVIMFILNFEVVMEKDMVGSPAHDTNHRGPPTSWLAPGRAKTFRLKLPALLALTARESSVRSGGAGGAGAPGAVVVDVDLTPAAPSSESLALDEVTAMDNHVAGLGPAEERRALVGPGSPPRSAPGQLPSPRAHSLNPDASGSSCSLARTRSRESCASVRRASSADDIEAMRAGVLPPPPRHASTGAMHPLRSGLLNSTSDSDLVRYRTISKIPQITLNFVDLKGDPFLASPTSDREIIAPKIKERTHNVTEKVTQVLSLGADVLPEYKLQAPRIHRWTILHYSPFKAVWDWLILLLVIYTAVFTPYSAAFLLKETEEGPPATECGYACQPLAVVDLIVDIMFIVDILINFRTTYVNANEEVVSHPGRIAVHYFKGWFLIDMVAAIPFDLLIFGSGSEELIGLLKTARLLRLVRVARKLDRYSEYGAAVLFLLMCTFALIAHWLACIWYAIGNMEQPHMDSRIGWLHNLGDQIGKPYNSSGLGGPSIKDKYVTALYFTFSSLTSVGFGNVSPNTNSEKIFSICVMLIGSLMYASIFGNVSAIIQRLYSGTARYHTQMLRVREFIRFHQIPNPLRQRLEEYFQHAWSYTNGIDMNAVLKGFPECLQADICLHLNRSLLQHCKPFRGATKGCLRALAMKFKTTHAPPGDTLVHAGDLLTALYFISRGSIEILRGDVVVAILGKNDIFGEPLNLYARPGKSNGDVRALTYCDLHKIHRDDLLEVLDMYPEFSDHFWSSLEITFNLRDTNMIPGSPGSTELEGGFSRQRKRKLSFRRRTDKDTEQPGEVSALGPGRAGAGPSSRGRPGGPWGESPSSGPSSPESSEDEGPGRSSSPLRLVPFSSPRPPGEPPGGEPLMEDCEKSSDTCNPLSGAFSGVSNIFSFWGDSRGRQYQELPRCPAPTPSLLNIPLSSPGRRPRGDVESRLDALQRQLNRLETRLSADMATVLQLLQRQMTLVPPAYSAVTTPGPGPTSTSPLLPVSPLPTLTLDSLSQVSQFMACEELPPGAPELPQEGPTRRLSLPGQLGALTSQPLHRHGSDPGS", "assay": "primary screen, population patch clamp on CHO cells stably expressing hERG", "units": {"hERG current change (%, negative = inhibition) at 10uM": "%"}}
{"compound": "CCN(CC)S(=O)(=O)c1ccc2c(c1)nc(SCC(=O)N(C)C1CCS(=O)(=O)C1)n2CC", "note": "(stereo not shown);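 further: peak tail current of the secondary pulse compared with the same well before compound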", "hERG current change (%, negative = inhibition) at 10uM": 6.94}
{"compound": "CCOc1ccc(-c2nnc(-c3ccccc3)n2-c2ccccc2)cc1", "hERG current change (%, negative = inhibition) at 10uM": -18.8}
{"compound": "S=C(NCCSCc1ccc(Cl)c(Cl)c1)Nc1ccccc1", "hERG current change (%, negative = inhibition) at 10uM": 16.9}
{"compound": "COC(=O)c1c(C#N)c(N)nc2c1CCC2", "hERG current change (%, negative = inhibition) at 10uM": 18.2}
{"compound": "O=C(CSc1nnnn1-c1ccc2c(c1)OCCO2)N1CCN(C(=O)c2ccco2)CC1", "hERG current change (%, negative = inhibition) at 10uM": -16.6}
{"compound": "O=C(Nc1ccc2c(c1)OCO2)c1ccc(CO)cc1", "hERG current change (%, negative = inhibition) at 10uM": 4.24}
{"compound": "O=C(CCC1CCCCC1)NCc1ccc(F)cc1", "hERG current change (%, negative = inhibition) at 10uM": -5.07}
{"compound": "COc1ccc(Cn2c(O)c(C=Nc3ccc(O)cc3)c3ccccc3c2=O)cc1", "hERG current change (%, negative = inhibition) at 10uM": 1.27}
{"compound": "O=C(c1cc(F)ccc1F)C1CCCN(CCCc2ccccc2)C1", "note": "(stereo not shown)", "hERG current change (%, negative = inhibition) at 10uM": -73.2}
{"compound": "CC(=O)N1CCN(C(C)=O)C1c1ccccc1", "hERG current change (%, negative = inhibition) at 10uM": 7.49}
{"compound": "CCC(C)(O)c1[nH]c2ccc(C(F)(F)F)cc2c1C", "note": "(stereo not shown)", "hERG current change (%, negative = inhibition) at 10uM": 24.8}
{"compound": "CC(O)c1cccc(N=Cc2ccc3ccccc3c2O)c1", "note": "(stereo not shown)", "hERG current change (%, negative = inhibition) at 10uM": 12.3}
{"compound": "CCOc1ccc(CN2CCN(Cc3cnc(-c4ccccc4)s3)CC2CCO)cc1", "note": "(stereo not shown)", "hERG current change (%, negative = inhibition) at 10uM": -90.7}
{"compound": "Nc1nc2ccccc2n1C(=O)c1ccc(F)cc1", "hERG current change (%, negative = inhibition) at 10uM": 10.1}
{"compound": "C=CCN(c1ccccc1)S(=O)(=O)c1cccc(C(=O)NCC2CCCO2)c1", "note": "(stereo not shown)", "hERG current change (%, negative = inhibition) at 10uM": -41.3}
{"compound": "C/C(=N\\Nc1cc(C)nc(-c2ccccc2O)n1)c1ccccc1", "hERG current change (%, negative = inhibition) at 10uM": 24.5}
{"compound": "COCCOC(=O)c1c(C)n(C)c2ccc(OC(=O)N3CCOCC3)cc12", "hERG current change (%, negative = inhibition) at 10uM": 2.98}
{"compound": "CN(C)C(=N)N=C(N)N.Cl", "hERG current change (%, negative = inhibition) at 10uM": 20.3}
{"compound": "Nn1c(SCC(=O)NCC2CCCO2)nnc1-c1ccc(OC(F)F)cc1", "note": "(stereo not shown)", "hERG current change (%, negative = inhibition) at 10uM": -68.5}
{"compound": "c1ccc(Nc2cc(Nc3ccccc3)[nH]n2)cc1", "hERG current change (%, negative = inhibition) at 10uM": -0.31}
{"compound": "CCC(C)C(=O)N1c2ccccc2C(=C2SC(C(=O)OC)=C(C(=O)OC)S2)C(=S)C1(C)C", "note": "(stereo not shown)", "hERG current change (%, negative = inhibition) at 10uM": -1.24}
{"compound": "Cc1cccc(NC(=O)NC2CC(=O)N(c3ccc4c(c3)OCCO4)C2)n1", "note": "(stereo not shown)", "hERG current change (%, negative = inhibition) at 10uM": -18.8}
{"compound": "COc1ccc(/C=C/C(=O)OCC(=O)Nc2cc(C(F)(F)F)ccc2Cl)cc1", "hERG current change (%, negative = inhibition) at 10uM": 10.5}
{"compound": "NC(=O)[C@@H]1CC2(CC(c3cccc(NC(=O)CC(c4ccccc4)c4ccccc4)c3)=NO2)CN1C(=O)[C@@H]1CCC(=O)N1", "note": "(stereo partly shown)", "hERG current change (%, negative = inhibition) at 10uM": -4.11}
{"compound": "Cc1cc(C(=O)CN2C(=O)C(=O)N(Cc3ccco3)C2=O)c(C)n1CCc1ccccc1", "hERG current change (%, negative = inhibition) at 10uM": -29}
{"compound": "COc1ccc(C(CNC(=O)C(CCSC)NC(=O)c2ccccc2OC)N2CCCCC2)cc1", "note": "(stereo not shown)", "hERG current change (%, negative = inhibition) at 10uM": -37.7}
{"compound": "COc1ccc(NC(=O)NCCCN2CCCC2=O)cc1", "hERG current change (%, negative = inhibition) at 10uM": 4.11}
{"compound": "CC1(C)CC(=O)C2=C(C1)OC(N)=C(C#N)C2c1ccc2c(c1)OCO2", "note": "(stereo not shown)", "hERG current change (%, negative = inhibition) at 10uM": 0.854}
{"compound": "COc1cc(OC)cc(-c2nc(=S)n3ccsc3n2)c1", "hERG current change (%, negative = inhibition) at 10uM": 13.2}
{"compound": "Cc1ccc(-c2cn(C[C@H]3CC[C@@H]([C@@H]4CC[C@H](Cn5cc(-c6ccc(C)cc6)nn5)O4)O3)nn2)cc1", "hERG current change (%, negative = inhibition) at 10uM": -7.99}
{"compound": "CC(/C=N/NC(=O)CNc1n[nH]c(=O)[nH]c1=O)c1ccccc1", "note": "(stereo not shown)", "hERG current change (%, negative = inhibition) at 10uM": 2.52}
{"compound": "O=C(NCC(NS(=O)(=O)OCC(Cl)(Cl)Cl)c1ccccc1)C(F)(F)F", "note": "(stereo not shown)", "hERG current change (%, negative = inhibition) at 10uM": -1.57}
{"compound": "Cc1cc(C)nc(SC2CC(=O)N(c3ccc(Br)cc3)C2=O)n1", "note": "(stereo not shown)", "hERG current change (%, negative = inhibition) at 10uM": 1.34}
{"compound": "O=C(CCCN1CCC(NC(=O)c2ccccc2)CC1)c1ccc(Cl)cc1", "hERG current change (%, negative = inhibition) at 10uM": -77.8}
{"compound": "COCCN(Cc1ccccc1)C(=O)c1ccc2c(=O)n3c(nc2c1)CCC3", "hERG current change (%, negative = inhibition) at 10uM": -22.1}
{"compound": "COc1ccccc1NC(=O)NCC(=O)Nc1ccc(F)c(F)c1", "hERG current change (%, negative = inhibition) at 10uM": -5.59}
{"compound": "O=C1C2CC=CCC2C(=O)N1c1ccc(OCC(O)Cn2nnc3ccccc32)cc1", "note": "(stereo not shown)", "hERG current change (%, negative = inhibition) at 10uM": -1.31}
{"compound": "CN(CCCNC(=O)c1cccc(N2CCCC2=O)c1)c1ccccc1", "hERG current change (%, negative = inhibition) at 10uM": -11.4}
{"compound": "Nc1nn2cc(-c3ccc(Br)cc3)nc2c2ccccc12", "hERG current change (%, negative = inhibition) at 10uM": 2.39}
{"compound": "Cc1ccc(/C=N/NC(=O)c2ccc(Br)o2)s1", "hERG current change (%, negative = inhibition) at 10uM": -12.8}
{"compound": "Cc1cccc(NS(=O)(=O)c2ccc(Cl)cc2)n1", "hERG current change (%, negative = inhibition) at 10uM": 21.6}
{"compound": "Cc1cc(Br)ccc1OCCN1CCCC1.O=C(O)C(=O)O", "hERG current change (%, negative = inhibition) at 10uM": -36.8}
{"compound": "COc1ccc(CNC(=O)CCCCCn2c(SCC#N)nc3cc4c(cc3c2=O)OCO4)cc1", "hERG current change (%, negative = inhibition) at 10uM": 4.73}
{"compound": "CC1=Nc2ccccc2N=C(NC(=O)CSC(=S)N2CCN(C)CC2)C1c1ccccc1", "note": "(stereo not shown)", "hERG current change (%, negative = inhibition) at 10uM": -24.2}
{"compound": "COc1ccc(NC(=O)CN(C)C(=O)c2ccc(NC3CC3)c([N+](=O)[O-])c2)cc1", "hERG current change (%, negative = inhibition) at 10uM": -72.8}
{"compound": "Cc1ccc(N2C(=O)N(CC(=O)Nc3ccc(C)cc3C)C(=O)C2C)cc1", "note": "(stereo not shown)", "hERG current change (%, negative = inhibition) at 10uM": 10.3}
{"compound": "COc1cc(CNC2CCCCCC2)cc(OC)c1O.O=C(O)C(=O)O", "hERG current change (%, negative = inhibition) at 10uM": 19.7}
{"compound": "Cc1cc(Cl)ccc1C(=O)C1CCCN(C(=O)c2cc(C(C)C)no2)C1", "note": "(stereo not shown)", "hERG current change (%, negative = inhibition) at 10uM": -22.7}
{"compound": "COC(=O)c1c(C(=O)OC)c2ccccn2c1C(=O)c1ccc([N+](=O)[O-])cc1", "hERG current change (%, negative = inhibition) at 10uM": -15.5}
{"compound": "CCOC(=S)N/C(=N\\S(=O)(=O)c1ccc(C)cc1)c1ccccc1", "hERG current change (%, negative = inhibition) at 10uM": 7.62}
{"compound": "O=C(Nc1ccc(NC(=O)N2CCN(c3ccccc3O)CC2)cc1)N1CCN(c2ccccc2O)CC1", "hERG current change (%, negative = inhibition) at 10uM": 21.7}
{"compound": "Cc1cccc(Nc2ccccc2C(=O)OCC(=O)N(C)C2CCS(=O)(=O)C2)c1C", "note": "(stereo not shown)", "hERG current change (%, negative = inhibition) at 10uM": -10.3}
{"compound": "CC(C)OCCCNC(=O)c1cc(Sc2ccc(F)cc2)nc2ccccc12", "hERG current change (%, negative = inhibition) at 10uM": -5.77}
{"compound": "CCOC(=O)c1ccc(NC(=S)NNC(C)(C)C)cc1", "hERG current change (%, negative = inhibition) at 10uM": 13}
{"compound": "O=C(NN1C(=O)/C(=C/C=C/c2ccco2)SC1=S)c1ccncc1", "hERG current change (%, negative = inhibition) at 10uM": 15.3}
